B1: Caulobacter ParB omega fusion; a variant is named by its letters at X, in order, B8GW30 (parent)
chain: MESVVVGEPGMSEGRRGLGRGLSALLGEVDAAPAQAPGEQLGGSREAPIEILQRNPDQPRRTFREEDLEDLSNSIREKGVLQPILVRPSPDTAGEYQIVAGERAWRAAQRAGLKTVPIMVRELDDLAVLEIGIIENVQRADLNVLEEALSYKVLMEKFERTQENIAQTIGKSXSHVANXMRLLXLPDEVQSYLVSGELTAXHARAIAAAADPVALAKQIIEGGLSVRETEALARKAPNLSAGKSKGGRPPRVKDTDTQALESDLSSVLGLDVSIDHRGSTGTLTITYATLEQLDDLCNRLTRGI

The full ranking holds about 81,000 sequences; the median of “one-hybrid fitness for binding parS DNA” is about -0.17, and the highest 2% start at about 0.51. The list shows a part of the results.

Variants of B1 are the subject of this assay. The experiment in a line: one-hybrid fitness for binding parS DNA (scaled: cognate 1, non-cognate 0); higher = stronger binding. The settings on record: with parS DNA site. An outline of the steps: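 Selection: bacterial one-hybrid in E. coli USO, HIS3 reporter with the site 19 bp from the promoter, 48 hours at 37°C on M9-minus-histidine plus 0.1 mM IPTG and 5 mM 3-AT. Libraries were Caulobacter ParB with four randomised specificity codons, sequenced on Illumina before and after selection. Fitness is the rescaled log change in variant-to-wild-type read ratio, anchored to the cognate and non-cognate sites.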
Consider HHKS, for which the “one-hybrid fitness for binding parS DNA” value was no more than 0.2.
As for TRVP, the “one-hybrid fitness for binding parS DNA” value was no more than 0.2.
As to RLSH, the “one-hybrid fitness for binding parS DNA” value worked out at 0.266.
For YTVT, the “one-hybrid fitness for binding parS DNA” value is no more than 0.2.
The value for LTRA was no more than 0.2; that for RDGT was no more than 0.2; that for QYAS was no more than 0.2.
To QRRD belongs no more than 0.2; to AHVF, no more than 0.2; to MRRA, no more than 0.2.
With TGPW, the “one-hybrid fitness for binding parS DNA” value was no more than 0.2.
The value for VYYT was no more than 0.2; that for WPAS was no more than 0.2.
The value for PKHG was no more than 0.2; that for FLEG was no more than 0.2.
The value for IALM was no more than 0.2.
In the case of TRAT, the “one-hybrid fitness for binding parS DNA” value is no more than 0.2.
Turning to YPQC, the “one-hybrid fitness for binding parS DNA” value was no more than 0.2.
The value for TGNC was no more than 0.2; that for SQGR was no more than 0.2.
Turning to HWAC, the “one-hybrid fitness for binding parS DNA” value is no more than 0.2.
Turning to ALQT, the “one-hybrid fitness for binding parS DNA” value is no more than 0.2.
The value for YALS was no more than 0.2; that for LGHF was no more than 0.2.
HYQT: the “one-hybrid fitness for binding parS DNA” value is no more than 0.2.
The value for LTLP was no more than 0.2; that for RTGE was no more than 0.2.
To RVTY belongs 0.459; to THVK, no more than 0.2.
Consider DCSR, for which the “one-hybrid fitness for binding parS DNA” value is no more than 0.2.
The value for VSAH was no more than 0.2; that for WIPP was no more than 0.2.
Consider TYMW, for which the “one-hybrid fitness for binding parS DNA” value was no more than 0.2.
For the variant WRNI, the “one-hybrid fitness for binding parS DNA” value was no more than 0.2.
To VAEC belongs no more than 0.2.
In the case of MSPA, the “one-hybrid fitness for binding parS DNA” value was no more than 0.2.
For RKLM, the “one-hybrid fitness for binding parS DNA” value was 0.272.
The value for WRDV was no more than 0.2; that for SGVK was no more than 0.2.
The value for PELL was no more than 0.2; that for NPYC was no more than 0.2.
As to RSIR, the “one-hybrid fitness for binding parS DNA” value is no more than 0.2.
Turning to IMLR, the “one-hybrid fitness for binding parS DNA” value was no more than 0.2.
The value for NYPW was no more than 0.2; that for GVDL was no more than 0.2; that for QHTN was no more than 0.2.
For AWRY, the “one-hybrid fitness for binding parS DNA” value is no more than 0.2.
RWNG: the “one-hybrid fitness for binding parS DNA” value turned out to be 0.797.
In the case of HRQV, the “one-hybrid fitness for binding parS DNA” value was no more than 0.2.
SGET: the “one-hybrid fitness for binding parS DNA” value was no more than 0.2.
Consider YTKG, for which the “one-hybrid fitness for binding parS DNA” value is no more than 0.2.
The value for QTCV was no more than 0.2.
With GCAP, the “one-hybrid fitness for binding parS DNA” value is no more than 0.2.
The value for KIYR was no more than 0.2; that for TVMS was no more than 0.2.
On to ENLH, for which the “one-hybrid fitness for binding parS DNA” value is no more than 0.2.
The value for MPMT was no more than 0.2.
To GWPD belongs no more than 0.2; to YWTR, no more than 0.2.
The value for GTTM was no more than 0.2; that for KGCR was no more than 0.2; that for WRPC was no more than 0.2.
As to FMTE, the “one-hybrid fitness for binding parS DNA” value was no more than 0.2.
The value for IRDC was no more than 0.2; that for VRIA was no more than 0.2; that for LCLK was no more than 0.2.
Regarding SCPD, the “one-hybrid fitness for binding parS DNA” value is no more than 0.2.
Turning to EFLK, the “one-hybrid fitness for binding parS DNA” value is no more than 0.2.
To YGFF belongs no more than 0.2; to DVHR, no more than 0.2.
The value for IRAM was no more than 0.2; that for LYHS was no more than 0.2.
Regarding SSNW, the “one-hybrid fitness for binding parS DNA” value is no more than 0.2.
Consider HQGP, for which the “one-hybrid fitness for binding parS DNA” value is no more than 0.2.
To REDW belongs no more than 0.2; to YIMR, no more than 0.2.
CSQA: the “one-hybrid fitness for binding parS DNA” value is no more than 0.2.
As for HYWM, the “one-hybrid fitness for binding parS DNA” value is no more than 0.2.
To GCQC belongs no more than 0.2; to IDHT, no more than 0.2.
To VDRK belongs no more than 0.2.
Regarding LAGS, the “one-hybrid fitness for binding parS DNA” value is no more than 0.2.
The value for DTHI was no more than 0.2; that for WRDY was no more than 0.2.
The value for RKSF was no more than 0.2; that for NFQE was no more than 0.2; that for YLQP was no more than 0.2.
To RWVR belongs no more than 0.2; to RARG, 0.956; to PEPI, no more than 0.2.
With GRMW, the “one-hybrid fitness for binding parS DNA” value is no more than 0.2.
To TLIS belongs no more than 0.2; to RMIQ, no more than 0.2.
The value for RFNR was no more than 0.2; that for RTVA was 0.566.
With PHHV, the “one-hybrid fitness for binding parS DNA” value was no more than 0.2.
For the variant QSEH, the “one-hybrid fitness for binding parS DNA” value was no more than 0.2.
For the variant FKAG, the “one-hybrid fitness for binding parS DNA” value is no more than 0.2.
For the variant DKVR, the “one-hybrid fitness for binding parS DNA” value was no more than 0.2.
As to APGC, the “one-hybrid fitness for binding parS DNA” value was no more than 0.2.
The value for QCIY was no more than 0.2.
As for GSKI, the “one-hybrid fitness for binding parS DNA” value was no more than 0.2.
As for HMHD, the “one-hybrid fitness for binding parS DNA” value was no more than 0.2.
The value for RSRV was no more than 0.2; that for CFMK was no more than 0.2; that for GNKA was no more than 0.2.
To HIID belongs no more than 0.2.
EGGI: the “one-hybrid fitness for binding parS DNA” value is no more than 0.2.
For the variant QTVF, the “one-hybrid fitness for binding parS DNA” value was no more than 0.2.
The value for MSFT was no more than 0.2.
To VKCI belongs no more than 0.2; to WANS, no more than 0.2.
The value for HFEE was no more than 0.2.
On to PQHY, for which the “one-hybrid fitness for binding parS DNA” value is no more than 0.2.
The value for AKPI was no more than 0.2.
Turning to PLRV, the “one-hybrid fitness for binding parS DNA” value was no more than 0.2.
For the variant DGKR, the “one-hybrid fitness for binding parS DNA” value was no more than 0.2.
To SRLT belongs no more than 0.2.
To KLLV belongs no more than 0.2; to QLHG, no more than 0.2; to NRRC, no more than 0.2.
The value for MRHS was no more than 0.2.
As to YRAS, the “one-hybrid fitness for binding parS DNA” value was found to be 0.283.
The value for IKTI was no more than 0.2; that for STCS was no more than 0.2.
To TGGS belongs no more than 0.2; to KIVR, no more than 0.2; to HMFR, no more than 0.2.
For PFPP, the “one-hybrid fitness for binding parS DNA” value was no more than 0.2.
As to NHEV, the “one-hybrid fitness for binding parS DNA” value was no more than 0.2.
Consider INQG, for which the “one-hybrid fitness for binding parS DNA” value is no more than 0.2.
To TEGL belongs no more than 0.2; to CCNA, no more than 0.2; to STAP, no more than 0.2.
To EYPC belongs no more than 0.2; to DHFR, no more than 0.2.
Take SWTA: the “one-hybrid fitness for binding parS DNA” value is no more than 0.2.
With DIKS, the “one-hybrid fitness for binding parS DNA” value was no more than 0.2.
To TIMS belongs no more than 0.2; to ADCQ, no more than 0.2.
TYPP: the “one-hybrid fitness for binding parS DNA” value was no more than 0.2.
On to IIAG, for which the “one-hybrid fitness for binding parS DNA” value is no more than 0.2.
As for KIFT, the “one-hybrid fitness for binding parS DNA” value is no more than 0.2.
To EEAP belongs no more than 0.2; to RLEV, no more than 0.2.
To SAQQ belongs no more than 0.2.
With HIMM, the “one-hybrid fitness for binding parS DNA” value is no more than 0.2.
To WGMS belongs no more than 0.2.
As for LCVC, the “one-hybrid fitness for binding parS DNA” value is no more than 0.2.
Turning to MARN, the “one-hybrid fitness for binding parS DNA” value is no more than 0.2.
To YLQM belongs no more than 0.2; to NLRM, no more than 0.2; to QAMQ, no more than 0.2.

For the origin of these results see a collection of fitness landscapes (doi:10.1016/j.celrep.2020.107928).
